Data: PubChem BioAssay AID686971 (National Center for Advancing Translational Sciences (NCATS), 2013)
Screen size: about 360,000 compounds; about 7,500 (2.1%) were called active. The shares of active, inactive and inconclusive entries below differ from those in the screen. Calls follow the shape of the dose curve; as a rule, active = well fitted cell-killing curve with a large enough effect; inconclusive = small, poorly fitted or top-dose-only effect, or effect the other way, or another doubt; inactive = no such curve, though single readings can be large or run the other way. No potency is given beside an inconclusive call; the fits are too rough.

Experiment: qHTS for induction of synthetic lethality in tumor cells producing 2HG: qHTS for the HT-1080-IDH1KD cell line;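 as to activity, negative = toxicity: 0% = DMSO wells and -100% = cell-free medium wells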
Conditions: HT-1080 IDH1 knockdown viability, ATP luminescence, 48 h; activity, negative = toxicity: at 46.1 µM (top of the series) unless noted
Summary of the method: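 Assay cells: HT-1080 with IDH1 knockdown, 750 per well, RPMI/5% FBS. Exposure: 48 h at 37 °C following 2 h pre-incubation. Read: CellTiter-Glo luminescence; fitted concentration-response, curve class assigned.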
Potency is read from the fitted curve at half-maximal effect; tags tell the direction and shape of the fitted curve.

Row | Structure (SMILES) | Potency | activity, negative = toxicity
1 | CCN(CC)CCCN(Cc1cc2cc3c(cc2[nH]c1=O)OCO3)C(=S)Nc1ccccc1 | inconclusive [cytotoxic, single point] | –
2 | CN=C(Nc1cc(C)nn1CCC#N)c1ccccc1 | – | inconclusive: 24.8%
3 | CC(=O)Nc1cccc(NC(=O)c2cc(-c3cccnc3)nc3ccc(Cl)cc23)c1 | inconclusive [cytotoxic, partial curve] | –
4 | CCOC(=O)C(=Cc1ccc(-n2cncn2)cc1)C(=O)OCC | active: 5.17 µM | –
5 | CS(=O)(=O)c1ccc2nc(NC(NC(=O)c3ccco3)(C(F)(F)F)C(F)(F)F)sc2c1 | inactive | –
6 | CCOc1ccc(/C=N/NC(=O)c2cc3c(OC)cccc3[nH]2)cc1 | inconclusive [cytotoxic, single point] | –
7 | CCOc1ccc(CCNC(=O)COC(=O)CCc2cc(OC)c(OC)c(OC)c2)cc1OCC | inactive | –
8 | O=C(Nc1ccc2c(c1)CCC2)c1ccc(Br)s1 | inconclusive [cytotoxic, single point] | –
9 | COc1ccccc1C1=NNC(=Nc2cccc(S(=O)(=O)N(C)C)c2)SC1 | inconclusive [cytotoxic, partial curve, poor fit] | –
10 | Cc1ccc2nc(C)cc(C(=O)OCC(=O)c3ccc(Cl)c([N+](=O)[O-])c3)c2c1 | inactive | –
11 | CC(C)Cc1ccc(C(C)/C=C2/CCC(CN3CCCCC3)C2=O)cc1 (stereo not given) | inconclusive [cytotoxic, single point] | –
12 | CC1CC1c1ccc(/C=C(\C#N)C(=O)Nc2ccc(Cl)cc2)o1 (stereo not given) | inconclusive [cytotoxic, single point] | –
13 | O=C1C(Cl)=C(NCCCN2CCOCC2)C(=O)c2ccccc21 | inconclusive [cytotoxic, single point] | –
14 | O=C(COC(=O)c1ccccc1C(=O)c1ccc(Cl)c([N+](=O)[O-])c1)NC1CCCCCC1 | active: 3.16 µM | –
15 | Cc1cc(C(=O)COc2cccnc2[N+](=O)[O-])c(C)n1Cc1ccco1 | active: 20.6 µM | –
16 | CCCCN(C(=O)C(C)Oc1ccc(Br)cc1)c1c(N)n(Cc2ccccc2)c(=O)[nH]c1=O (stereo not given) | inactive | –
17 | CCc1ccc(NC(=O)Nc2cccc(OC)c2)cc1 | inactive | –
18 | O=C(Nc1ccccc1)c1cc2ccccc2o1 | inconclusive [cytotoxic, single point] | –
19 | COc1cccc(-c2cc3nc(NCCCN(C)C)n(C)c(=O)c3s2)c1 | inconclusive [cytotoxic, single point] | –
20 | COC(=O)c1ccc(/C=C/c2ccc3cccc(OC(C)=O)c3n2)cc1 | inconclusive [cytotoxic, single point] | –
